Assay results as given in patent publication US20180282412A1 (ASIA BIOTECH PTE, published 2018).

Target: T1, full-length human PD-1 expressed on transfected CHO-K1 cells (CHO/PD-1) (human, UniProt Q15116 25-288)
T1 construct: also called PD-1-transfected CHO cells; cell surface PD-1
Assay: flow cytometry, biotin-PD-L1-Fc on CHO/PD-1 cells, detected with Avidin-FITC

T1 sequence (Q15116 25-288 limits assumed): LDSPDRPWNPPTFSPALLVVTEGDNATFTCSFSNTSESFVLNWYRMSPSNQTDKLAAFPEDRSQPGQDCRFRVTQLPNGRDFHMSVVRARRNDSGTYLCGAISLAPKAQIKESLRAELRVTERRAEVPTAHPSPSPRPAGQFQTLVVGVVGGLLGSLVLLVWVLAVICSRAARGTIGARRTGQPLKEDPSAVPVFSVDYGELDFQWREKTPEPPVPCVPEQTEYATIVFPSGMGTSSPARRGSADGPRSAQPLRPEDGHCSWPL

- binding result: binds
B1: PD-L1-Fc fusion protein (extracellular region of human PD-L1 fused to human Fc) (Fc fusion)
chain: not shown
notes: also called biotin-PD-L1-Fc; biotin labelled PDL1-Fc
